From PubChem BioAssay (Tox21)
Inconclusive results, whose numbers are uncertain, are shown with a selection of clear calls. For part of these data: A potency beside an inconclusive call is a rough fit, not a confirmed value. Active and inactive are the calls of the source. Unless noted, calls follow the shape of the dose curve; as a rule, active = well fitted curve in the direction sought with a large enough effect in the repeat runs; inconclusive = weak or mixed curves; inactive = no such curve, though single readings can be large; an effect the other way counts as inactive or inconclusive.

Legend:
[1] = qHTS assay for small molecule agonists of the antioxidant response element (ARE) signaling pathway (AID 743202; active = well fitted activation curve with a large enough effect in the signal ratio in the repeat runs, not every such curve was filed as active; inconclusive = weak or mixed curves, or effect the other way; inactive = no such curve, though single readings can be large or run the other way; the % refers to the signal ratio; also: potency is read from the fitted curve at half-maximal effect); conditions: HepG2 ARE-bla reporter, beta-lactamase FRET, 16 h; activation: at 73.3 µM (top of the series) unless noted
Summary of the method: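 Agonist mode reporter screen: HepG2 cells with ARE-controlled beta-lactamase are incubated with test compounds for 16 h at 37 C, and beta-lactamase activity is measured as fluorescence of cleaved B/G FRET substrate.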

[2] = qHTS assay for small molecule activators of the heat shock response signaling pathway (AID 743210; active = well fitted activation curve with a large enough effect in the signal ratio in the repeat runs, with a control signal flat, not every such curve was filed as active; inconclusive = weak or mixed curves; the % refers to the signal ratio; also: potency is read from the fitted curve at half-maximal effect); conditions: HeLa HSE-bla reporter, beta-lactamase ratio, 5 h; activation: at 62.6 µM (top of the series) unless noted
Summary of the method: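 Quantitative high-throughput format using an engineered HeLa line in which heat shock response elements drive beta-lactamase; after 5 h with compound, cells received a B/G FRET substrate and fluorescence was read.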

[3] = target: Peroxisome proliferator-activated receptor delta (Homo sapiens) (UniProt Q03181); experiment: qHTS assay to identify small molecule agonists of the peroxisome proliferator-activated receptor delta (PPARd) signaling pathway (AID 743212; calls by dose curve; also: potency is read from the fitted curve at half-maximal effect); conditions: HEK293H PPARd-UAS-bla, beta-lactamase FRET ratio, 17 h; activation: at 62.6 µM (top of the series) unless noted
UniProt Q03181, sequence (Q03181 whole entry, looked up): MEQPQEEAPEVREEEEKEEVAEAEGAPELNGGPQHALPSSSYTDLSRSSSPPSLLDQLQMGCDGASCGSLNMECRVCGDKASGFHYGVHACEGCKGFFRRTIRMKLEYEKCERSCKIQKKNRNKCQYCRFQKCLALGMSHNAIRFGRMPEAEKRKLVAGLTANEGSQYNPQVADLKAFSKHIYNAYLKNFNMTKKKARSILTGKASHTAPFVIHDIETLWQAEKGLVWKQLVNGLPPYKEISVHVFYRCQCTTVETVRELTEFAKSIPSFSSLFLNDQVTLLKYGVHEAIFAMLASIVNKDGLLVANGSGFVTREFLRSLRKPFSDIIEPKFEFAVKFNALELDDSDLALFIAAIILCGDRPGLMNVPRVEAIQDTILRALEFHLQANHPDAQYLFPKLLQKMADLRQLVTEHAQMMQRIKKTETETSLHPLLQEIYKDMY
Summary of the method: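 Quantitative high-throughput agonist screen in a HEK293H beta-lactamase reporter line under UAS control. Compounds in DMSO, at 37 C. Fluorescence read after 2 h with FRET substrate at room temperature.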

[4] = target: Peroxisome proliferator-activated receptor delta (Homo sapiens) (UniProt Q03181); experiment: qHTS assay to identify small molecule antagonists of the peroxisome proliferator-activated receptor delta (PPARd) signaling pathway (AID 743215; active = well fitted inhibition curve with a large enough effect in the signal ratio in the repeat runs, not every such curve was filed as active; inconclusive = weak or mixed curves, or effect the other way; inactive = no such curve, though single readings can be large or run the other way; the % refers to the signal ratio; also: potency is read from the fitted curve at half-maximal effect; as to ratio activity, negative = inhibition: % is scaled to controls: 0 for no effect and ±100 for the full control effect); conditions: HEK293H PPARd-UAS-bla, beta-lactamase FRET ratio, antagonist, 17 h; ratio activity, negative = inhibition: at 62 µM (top of the series) unless noted
Summary of the method: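 With L165041 present at 300 nM final, compounds were incubated 17 h at 37 C on PPARd UAS-bla HEK293H cells. A FRET-based beta-lactamase substrate was then applied for 2 h at room temperature and fluorescence intensity recorded.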

[5] = target: Bile acid receptor (Homo sapiens) (UniProt Q96RI1); experiment: qHTS assay to identify small molecule agonists of the farnesoid-X-receptor (FXR) signaling pathway (AID 743220; active = well fitted activation curve with a large enough effect in the signal ratio in the repeat runs, not every such curve was filed as active; inconclusive = weak or mixed curves, or effect the other way; the % refers to the signal ratio; also: potency is read from the fitted curve at half-maximal effect); conditions: HEK293T FXR-UAS-bla, beta-lactamase FRET ratio, 16 h; activation: at 62.6 µM (top of the series)
UniProt Q96RI1, sequence (Q96RI1 whole entry, looked up): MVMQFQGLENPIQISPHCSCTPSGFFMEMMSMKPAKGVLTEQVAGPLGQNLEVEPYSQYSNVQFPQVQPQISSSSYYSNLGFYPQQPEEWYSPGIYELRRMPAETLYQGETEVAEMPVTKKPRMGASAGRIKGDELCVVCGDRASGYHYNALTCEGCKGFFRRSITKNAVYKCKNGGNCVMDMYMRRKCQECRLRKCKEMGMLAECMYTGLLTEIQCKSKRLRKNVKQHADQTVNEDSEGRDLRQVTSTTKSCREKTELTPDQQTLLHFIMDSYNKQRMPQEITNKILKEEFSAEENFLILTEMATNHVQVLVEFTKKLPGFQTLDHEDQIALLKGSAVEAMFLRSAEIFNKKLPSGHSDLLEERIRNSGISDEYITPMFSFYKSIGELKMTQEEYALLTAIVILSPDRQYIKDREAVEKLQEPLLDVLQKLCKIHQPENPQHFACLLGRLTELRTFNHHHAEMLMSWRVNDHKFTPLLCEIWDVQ
Summary of the method: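 Beta-lactamase reporter under UAS control in GeneBLAzer FXR HEK 293T cells (5000/well) measured with LiveBLAzer FRET substrate after 2 h at room temperature. Compound exposure lasted 16 h at 37C.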

[6] = qHTS assay to identify small molecule agonists of the vitamin D receptor (VDR) signaling pathway - cell viability counter screen (AID 743224); conditions: VDR-bla HEK293T viability, CellTiter-Glo luminescence, 16 h; activity change, negative = cytotoxicity: at 62.6 µM (top of the series); also: nearly all actives have a fitted effect of over 50% in size; also: potency is read from the fitted curve at half-maximal effect; as to activity change, negative = cytotoxicity: % is scaled to controls: 0 for no effect and ±100 for the full control effect
Summary of the method: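 Here cell health was gauged by luminescent ATP detection (CellTiter-Glo, 30 min RT) in VDR-bla cells that had been incubated with test compounds for 16 h at 37C and 5% CO2.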

[7] = target: Nuclear receptor ROR-gamma (Homo sapiens) (UniProt P51449); experiment: qHTS assay to identify small molecule antagonists of the retinoid-related orphan receptor gamma (ROR-gamma) signaling pathway (AID 1159521; also: nearly all actives have a fitted effect of over 50% in size; also: potency is read from the fitted curve at half-maximal effect)
Summary of the method: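 Luminescence readout (ONE-Glo, 30 min RT) after 16 h doxycycline induction; loss of signal scored as antagonism. CHO cells with TET-inducible RORγ and RORE-LUC reporter; compounds added 2 h before 1 uM final doxycycline.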

[8] = qHTS assay for small molecule activators of the heat shock response signaling pathway - cell viability counter screen (AID 743209); conditions: HSE-bla HeLa viability, CellTiter-Glo luminescence, 5 h; activity change, negative = cytotoxicity: at 62.6 µM (top of the series); also: nearly all actives have a fitted effect of over 50% in size; also: potency is read from the fitted curve at half-maximal effect
Summary of the method: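 Counter screen for cytotoxicity in HeLa HSE-bla reporter cells. Treatment was 5 h at 37 C; viability was detected by luminescent ATP assay (CellTiter-Glo) in the same wells as the beta-lactamase read.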

[9] = qHTS assay to identify small molecule antagonists of the peroxisome proliferator-activated receptor delta (PPARd) signaling pathway - cell viability counter screen (AID 743213); conditions: PPARd-bla HEK293H viability, CellTiter-Glo luminescence, 17 h; viability change, negative = cytotoxic: at 62 µM (top of the series) unless noted; also: % is scaled to controls: 0 for no effect and ±100 for the full control effect; nearly all actives have a fitted effect of over 50% in size
Summary of the method: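 Agonist-stimulated (L165041, 300 nM final) HEK293H PPARd UAS-bla cells are exposed to compounds for 17 h at 37 C, and ATP-based luminescence (CellTiter-Glo) from the same wells reports cytotoxicity.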

[10] = target: Vitamin D3 receptor (Homo sapiens) (UniProt P11473); experiment: qHTS assay to identify small molecule agonists of the vitamin D receptor (VDR) signaling pathway (AID 743222; calls by dose curve; also: potency is read from the fitted curve at half-maximal effect); conditions: HEK293T VDR-UAS-bla, beta-lactamase FRET ratio, 16 h; activation: at 63.5 µM (top of the series) unless noted
UniProt P11473, sequence (P11473 whole entry, looked up): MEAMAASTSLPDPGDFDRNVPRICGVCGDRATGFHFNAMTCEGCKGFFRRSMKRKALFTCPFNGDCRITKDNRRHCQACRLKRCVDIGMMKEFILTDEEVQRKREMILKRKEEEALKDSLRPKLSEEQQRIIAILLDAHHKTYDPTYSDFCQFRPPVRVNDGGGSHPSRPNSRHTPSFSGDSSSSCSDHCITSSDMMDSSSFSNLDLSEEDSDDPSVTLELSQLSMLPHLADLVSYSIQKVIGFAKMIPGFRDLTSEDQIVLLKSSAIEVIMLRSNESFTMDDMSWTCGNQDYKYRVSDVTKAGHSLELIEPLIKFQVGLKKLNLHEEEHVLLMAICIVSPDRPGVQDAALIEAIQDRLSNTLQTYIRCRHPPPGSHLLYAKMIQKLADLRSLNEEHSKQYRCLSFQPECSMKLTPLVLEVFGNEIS
Summary of the method: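 VDR-bla cells were seeded, left 4 h, treated with compounds in DMSO for 16 h, incubated 2 h at RT with B/G FRET substrate, and read for fluorescence.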

[11] = target: Vitamin D3 receptor (Homo sapiens) (UniProt P11473); experiment: qHTS assay to identify small molecule antagonists of the vitamin D receptor (VDR) signaling pathway (AID 743223; active = well fitted inhibition curve with a large enough effect in the signal ratio in the repeat runs, not every such curve was filed as active; inconclusive = weak or mixed curves, or effect the other way; inactive = no such curve, though single readings can be large or run the other way; the % refers to the signal ratio; also: % is scaled to controls: 0 for no effect and ±100 for the full control effect); conditions: VDR-UAS-bla HEK293T, beta-lactamase FRET ratio, 16 h; activity change, negative = inhibition: at 61 µM (top of the series) unless noted
Summary of the method: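 Beta-lactamase reporter read-out: FRET substrate fluorescence after 2 h at room temperature, following 16 h exposure of VDR-bla cells to test compound plus 3 nM (final) 1alpha,25-dihydroxyvitamin D3 agonist at 37C.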

[12] = qHTS assay to identify small molecule agonists of the peroxisome proliferator-activated receptor delta (PPARd) signaling pathway - cell viability counter screen (AID 743211); conditions: PPARd-bla HEK293H viability, CellTiter-Glo luminescence, 17 h; activity change, negative = cytotoxicity: at 62.6 µM (top of the series); also: nearly all actives have a fitted effect of over 55% in size; also: potency is read from the fitted curve at half-maximal effect
Summary of the method: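 Read-out: CellTiter-Glo luminescence, 30 min RT, measured in the same wells as the beta-lactamase reporter. Cells: GeneBLAzer PPAR delta UAS-bla HEK293H, 3000 cells/well, compound exposure 17 h at 37C.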

[13] = qHTS assay to identify small molecule antagonists of the vitamin D receptor (VDR) signaling pathway - cell viability counter screen (AID 743225); conditions: VDR-bla HEK293T viability, CellTiter-Glo luminescence, 16 h; viability change, negative = cytotoxic: at 61 µM (top of the series) unless noted
Summary of the method: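 Viability counter screen run in the same wells as the beta-lactamase reporter assay: HEK 293T VDR-UAS-bla cells, 16 h compound exposure at 37C with 3 nM (final) 1-alpha,25-dihydroxyvitamin D3. CellTiter-Glo luminescence, 30 min, room temperature.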

[14] = target: Bile acid receptor (Homo sapiens) (UniProt Q96RI1); experiment: qHTS assay to identify small molecule antagonists of the farnesoid-X-receptor (FXR) signaling pathway (AID 743217; active = well fitted inhibition curve with a large enough effect in the signal ratio in the repeat runs, not every such curve was filed as active; inconclusive = weak or mixed curves, or effect the other way; inactive = no such curve, though single readings can be large or run the other way; the % refers to the signal ratio; also: % is scaled to controls: 0 for no effect and ±100 for the full control effect); conditions: HEK293T FXR-UAS-bla, beta-lactamase ratio, CDCA-stimulated, 16 h; activity change, negative = inhibition: at 62.6 µM (top of the series) unless noted
Summary of the method: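 In this cell-based antagonist screen, inhibition of CDCA-driven (50 uM final) UAS-beta-lactamase expression in HEK 293T cells was measured by FRET fluorescence following 16 h compound exposure at 37 °C.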
Tags tell the direction and shape of the fitted curve or compound fluorescence and quenching.

CCOC(=O)COC(=O)c1cc(Oc2ccc(C(F)(F)F)cc2Cl)ccc1[N+](=O)[O-]
inactive: Potency [6]
inconclusive: Potency [1] 6.11 µM [falling, partial curve, poor fit] | Potency [2] 61.6 µM [falling, partial curve, poor fit] | Potency [3] 34.7 µM [rising, partial curve, poor fit] | ratio activity, negative = inhibition [4] -35.6% | Potency [5] 77.6 µM [rising, single point] | Potency [7] 68.6 µM [inhibitor, single point]

CCOC(=O)c1cnc2c(cnn2CC)c1NN=C(C)C
inactive: Potency [1] | Potency [8] | Potency [9] | Potency [10] | Potency [7]

Nc1cccc(S(=O)(=O)O)c1
inactive: Potency [1] | Potency [8]
inconclusive: activity change, negative = inhibition [11] 12.6% | Potency [7] 7.72 µM [inhibitor, full curve, poor fit]

NC(Cc1ccc(Cl)cc1)C(=O)O (stereo not given)
inactive: activity change, negative = cytotoxicity [6] 2.72% [at 0.55 µM] | activity change, negative = inhibition [7] 14.9% [at 0.35 µM]
inconclusive: activation [1] 18.5% [at 0.756 µM] | Potency [8] 0.15 µM [cytotoxic, single point]

CCCCOC(=O)c1ccc(N)cc1
inactive: Potency [12] | Potency [11] | Potency [7]
inconclusive: Potency [1] 33.9 µM [rising, partial curve] | activation [1] 29.7% | Potency [6] 13.3 µM [cytotoxic, single point] | Potency [13] 6.83 µM [cytotoxic, partial curve, poor fit]

Cc1cc(C)cc(O)c1
inconclusive: activation [3] 12.1% [at 81.1 µM] | Potency [4] 63.5 µM [rising, partial curve, poor fit] | activity change, negative = inhibition [11] 14.1% | Potency [7] 68.7 µM [inhibitor, single point]
inactive: Potency [1]

CCO[Si](CCCN=C=O)(OCC)OCC
inactive: Potency [10] | Potency [7]
inconclusive: activation [1] -3.72% | Potency [12] 21.9 µM [cytotoxic, full curve, poor fit]

CC(C)c1nnc2ccc(-c3ocnc3-c3cc(F)ccc3F)cn12
inactive: Potency [9] | Potency [11] | Potency [6]
inconclusive: Potency [1] 27.3 µM | Potency [3] 27.5 µM [rising, partial curve] | ratio activity, negative = inhibition [4] -28.9% | activity change, negative = inhibition [14] -24.5% | Potency [10] 11 µM [rising, partial curve] | Potency [7] 77 µM [inhibitor, single point]
